From the antibiotic and cytotoxicity screens of Wong et al. (2023)
The other results are listed elsewhere or left out.

Legend:
HSkMC = human skeletal muscle cells; test: cytotoxicity call (relative viability < 0.9); conditions: 10 µM
HepG2 = test: cytotoxicity call (relative viability < 0.9); conditions: 10 µM
S. aureus RN4220 = test: growth inhibition call (relative growth <= 0.2); conditions: 50 µM

What does the source list for `CCOC(=O)[C@@H](C#N)C(=O)C1CC1`?
cytotoxicity call (HSkMC): inactive; cytotoxicity call (HepG2): inactive; growth inhibition call (S. aureus RN4220): inactive

How did the cytotoxicity call (HSkMC) turn out when `CN1C(=O)c2cc(NC(=O)c3ccc(F)c(F)c3)ccc2OC[C@@H]2O[C@@H](CC(=O)N3CCOCC3)CC[C@H]21` was run?
The cytotoxicity call was “inactive”.

And the cytotoxicity call (HepG2)?
Its cytotoxicity call is “inactive”.

And the growth inhibition call (S. aureus RN4220)?
The growth inhibition call was “inactive”.

With `C[C@@H]1CN([C@H](C)CO)S(=O)(=O)c2ccc(C#Cc3ccccc3)cc2O[C@H]1CN(C)S(=O)(=O)c1ccccc1F` as the compound, how does the cytotoxicity call (HSkMC) read?
The cytotoxicity call was “inactive”.

And the cytotoxicity call (HepG2)?
Its cytotoxicity call is “inactive”.

What about the growth inhibition call (S. aureus RN4220) of the same compound?
Its growth inhibition call is “inactive”.

For `CCCCC/C=C\C/C=C\CCCCCCCC(=O)O`, which cytotoxicity call (HSkMC) is on record?
Its cytotoxicity call is “inactive”.

What about the cytotoxicity call (HepG2) of the same compound?
The cytotoxicity call was “inactive”.

And the growth inhibition call (S. aureus RN4220)?
The growth inhibition call was “inactive”.

Which results are given for `C[C@H]1CN([C@@H](C)CO)C(=O)Cc2cc(NC(=O)Nc3cccc4ccccc34)ccc2O[C@H]1CN(C)Cc1ccncc1`?
cytotoxicity call (HSkMC): inactive; cytotoxicity call (HepG2): inactive; growth inhibition call (S. aureus RN4220): inactive

Which results are given for `C[C@H](CO)N1C[C@H](C)[C@H](CN(C)Cc2ccc(Cl)c(Cl)c2)Oc2ccc(NS(=O)(=O)c3ccccc3)cc2C1=O`?
cytotoxicity call (HSkMC): inactive; cytotoxicity call (HepG2): inactive; growth inhibition call (S. aureus RN4220): inactive

How did the cytotoxicity call (HSkMC) turn out when `CC(=O)CCCCn1c(=O)c2c(ncn2C)n(C)c1=O` was run?
The cytotoxicity call was “inactive”.

What about the cytotoxicity call (HepG2) of the same compound?
Its cytotoxicity call is “inactive”.

What about the growth inhibition call (S. aureus RN4220) of the same compound?
The growth inhibition call was “inactive”.

With `C[C@@H]1CCCCO[C@@H](CN(C)Cc2ccncc2)[C@@H](C)CN([C@H](C)CO)C(=O)c2cc(NS(C)(=O)=O)ccc2O1` as the compound, how does the cytotoxicity call (HSkMC) read?
Its cytotoxicity call is “inactive”.

What about the cytotoxicity call (HepG2) of the same compound?
Its cytotoxicity call is “inactive”.

What about the growth inhibition call (S. aureus RN4220) of the same compound?
The growth inhibition call was “inactive”.

Which cytotoxicity call (HSkMC) does the source give for `COc1ccc(NC(=O)N(C)C[C@@H]2OCCCC[C@H](C)Oc3ccc(NS(=O)(=O)c4cccs4)cc3C(=O)N([C@H](C)CO)C[C@H]2C)cc1` here?
The cytotoxicity call was “inactive”.

What about the cytotoxicity call (HepG2) of the same compound?
Its cytotoxicity call is “inactive”.

And the growth inhibition call (S. aureus RN4220)?
The growth inhibition call was “inactive”.

What does the source list for `Cc1noc(C)c1NC(=O)Nc1ccc2c(c1)C(=O)N([C@H](C)CO)C[C@H](C)[C@H](CN(C)C(=O)Cc1ccccc1)OCCCC[C@H](C)O2`?
cytotoxicity call (HSkMC): inactive; cytotoxicity call (HepG2): inactive; growth inhibition call (S. aureus RN4220): inactive

What does the source list for `Cc1noc(C)c1NC(=O)Nc1ccc2c(c1)CC(=O)N([C@@H](C)CO)C[C@H](C)[C@@H](CN(C)S(=O)(=O)c1ccccc1)O2`?
cytotoxicity call (HSkMC): inactive; cytotoxicity call (HepG2): inactive; growth inhibition call (S. aureus RN4220): inactive

What does the source list for `Cc1cc(C(=O)Nc2cccc3c2O[C@H](CN(C)S(=O)(=O)c2ccccc2)[C@@H](C)CN([C@@H](C)CO)C3=O)n(C)n1`?
cytotoxicity call (HSkMC): inactive; cytotoxicity call (HepG2): inactive; growth inhibition call (S. aureus RN4220): inactive

With `O=c1c2ccccc2oc2ccc(O)cc12` as the compound, how does the cytotoxicity call (HSkMC) read?
Its cytotoxicity call is “inactive”.

What about the cytotoxicity call (HepG2) of the same compound?
Its cytotoxicity call is “inactive”.

What about the growth inhibition call (S. aureus RN4220) of the same compound?
The growth inhibition call was “inactive”.

How did the cytotoxicity call (HSkMC) turn out when `C[C@@H]1CN([C@@H](C)CO)S(=O)(=O)c2ccc(Br)cc2O[C@H]1CN(C)C(=O)c1ccccc1F` was run?
Its cytotoxicity call is “inactive”.

What about the cytotoxicity call (HepG2) of the same compound?
Its cytotoxicity call is “inactive”.

And the growth inhibition call (S. aureus RN4220)?
Its growth inhibition call is “inactive”.

Which results are given for `C[C@@H]1CCCCO[C@@H](CN(C)C)[C@H](C)CN([C@H](C)CO)C(=O)c2cc(NC(=O)CCCCCC(=O)Nc3ccccc3N)ccc2O1`?
cytotoxicity call (HSkMC): inactive; cytotoxicity call (HepG2): inactive; growth inhibition call (S. aureus RN4220): inactive

With `C[C@@H]1CN([C@H](C)CO)C(=O)c2cc(NC(=O)Cc3ccccc3)ccc2O[C@@H](C)CCCCO[C@H]1CN(C)S(=O)(=O)c1ccc(Cl)cc1` as the compound, how does the cytotoxicity call (HSkMC) read?
Its cytotoxicity call is “inactive”.

What about the cytotoxicity call (HepG2) of the same compound?
The cytotoxicity call was “inactive”.

And the growth inhibition call (S. aureus RN4220)?
The growth inhibition call was “inactive”.

How did the cytotoxicity call (HSkMC) turn out when `C[C@H](CO)N1C[C@H](C)[C@@H](CN(C)C(=O)Nc2ccc(C(F)(F)F)cc2)OCCCC[C@H](C)Oc2ccc(NS(=O)(=O)c3cccs3)cc2C1=O` was run?
The cytotoxicity call was “inactive”.

What about the cytotoxicity call (HepG2) of the same compound?
The cytotoxicity call was “active”.

What about the growth inhibition call (S. aureus RN4220) of the same compound?
The growth inhibition call was “inactive”.

For `C[C@@H]1CCCCO[C@@H](CN(C)C(=O)CCC(F)(F)F)[C@H](C)CN([C@@H](C)CO)C(=O)c2cc(NC(=O)CCC(F)(F)F)ccc2O1`, which cytotoxicity call (HSkMC) is on record?
The cytotoxicity call was “inactive”.

What about the cytotoxicity call (HepG2) of the same compound?
Its cytotoxicity call is “inactive”.

And the growth inhibition call (S. aureus RN4220)?
Its growth inhibition call is “inactive”.

What does the source list for `CO[C@@H]1CN(C)C(=O)c2cc(NS(=O)(=O)CC(F)(F)F)ccc2OC[C@H](C)N(C(=O)NC(C)C)C[C@@H]1C`?
cytotoxicity call (HSkMC): inactive; cytotoxicity call (HepG2): inactive; growth inhibition call (S. aureus RN4220): inactive

Which results are given for `C[C@H](CO)N1C[C@H](C)[C@H](CN(C)S(=O)(=O)c2cccs2)Oc2ncc(C#Cc3ccc(F)cc3)cc2C1=O`?
cytotoxicity call (HSkMC): inactive; cytotoxicity call (HepG2): inactive; growth inhibition call (S. aureus RN4220): inactive

For `C[C@H]1CN([C@@H](C)CO)C(=O)CCCn2nncc2CO[C@@H]1CN(C)S(=O)(=O)c1ccc2ccccc2c1`, which cytotoxicity call (HSkMC) is on record?
Its cytotoxicity call is “inactive”.

And the cytotoxicity call (HepG2)?
The cytotoxicity call was “inactive”.

What about the growth inhibition call (S. aureus RN4220) of the same compound?
Its growth inhibition call is “inactive”.

Which cytotoxicity call (HSkMC) does the source give for `COCC(=O)Nc1ccc2c(c1)C(=O)N(C)C[C@H](OC)[C@H](C)CN(Cc1cccc(F)c1)[C@H](C)CO2` here?
Its cytotoxicity call is “inactive”.

And the cytotoxicity call (HepG2)?
The cytotoxicity call was “inactive”.

What about the growth inhibition call (S. aureus RN4220) of the same compound?
The growth inhibition call was “inactive”.

How did the cytotoxicity call (HSkMC) turn out when `COc1ccc(S(=O)(=O)N(C)C[C@@H]2OCCCC[C@H](C)Oc3ccc(NC(=O)CCC(F)(F)F)cc3C(=O)N([C@H](C)CO)C[C@H]2C)cc1` was run?
Its cytotoxicity call is “inactive”.

And the cytotoxicity call (HepG2)?
Its cytotoxicity call is “inactive”.

And the growth inhibition call (S. aureus RN4220)?
The growth inhibition call was “inactive”.

How did the cytotoxicity call (HSkMC) turn out when `C[C@@H]1CN([C@@H](C)CO)C(=O)Cc2cc(NS(C)(=O)=O)ccc2O[C@@H]1CN(C)C` was run?
The cytotoxicity call was “inactive”.

What about the cytotoxicity call (HepG2) of the same compound?
The cytotoxicity call was “inactive”.

And the growth inhibition call (S. aureus RN4220)?
The growth inhibition call was “inactive”.

For `COc1ccc(S(=O)(=O)N(C)C[C@@H]2Oc3ccc(NS(=O)(=O)c4cn(C)cn4)cc3C(=O)N([C@@H](C)CO)C[C@@H]2C)cc1`, which cytotoxicity call (HSkMC) is on record?
The cytotoxicity call was “inactive”.

And the cytotoxicity call (HepG2)?
Its cytotoxicity call is “inactive”.

What about the growth inhibition call (S. aureus RN4220) of the same compound?
Its growth inhibition call is “inactive”.
